In the supplement of paper PMC10126150:
Sequences with one replicate were seen in a single cluster, so their values are uncertain.

Test system: ATP
Test: switch fluorescence ratio, 500 uM ATP over buffer (Cy3 cluster intensity, sum of 5 cycles each) (fold (ratio)); higher = stronger signal-on switching upon ATP binding; sequences stand for … in TCGTCGGCAGCGTCAGATGTGTATAAGAGACAGTTTTTTTTTTTTTTTTTTTTTTTTT…TC
Conditions: aptamer strand: ATP DNA aptamer (quencher-CACCTGGGGGAGTATTGCGGAGGAAGG + anchor), 100 nM annealed; ATP concentration: 500 uM; one replicate
Method in brief: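 After annealing to 100 nM quencher-labelled ATP aptamer, Cy3-labelled switching-strand clusters on a modified Illumina MiSeq flow-cell were imaged in selection buffer. A second image followed after 15 min with 500 uM ATP at 22 °C, and five such buffer/ATP cycles were done, each separated by NaOH stripping and re-annealing. The fluorescence ratio, averaged per switch-domain sequence, is summed target-cycle over summed buffer-cycle Cy3 intensity per cluster, with clusters outside 100-1000 RFU excluded.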
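Note: ATP exposure 15 min at 22 °C before imaging.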

Sequence	switch fluorescence ratio
CCCGGCATCC	1.6
AAAGAAGTAC	1.16
GTTGTTTGTC	1.02
ACATCGTTGC	1
CTGGGCGAGA	1.02
TCTCGTATCC	0.989
AGATCCCGTA	0.948
TCTTCTTGGA	1.01
AAACAGTTTA	0.976
GCGCCGATGG	0.957
TTATACACTC	1.01
ACGTAGCCTA	1.13
AGAAGACTGA	1.07
CTTAACTTAT	1.01
CGTGCGTTGG	0.979
TTTCTTGGTG	0.996
AGCGTCGCA	1.02
GGTACATCGC	1
GGATTAGACT	0.998
ACACGTCCAT	1.08
GATCTACCTG	1.01
GCGAACCATG	1.01
GGACCGTAGA	1.04
AGAATGTTG	0.962
GGTCCTTTTT	0.984
TACCGTTGGT	0.972

Sequence	switch fluorescence ratio
TAAGAGACT	0.996
CCTCGTCATG	1.73
TCCGGGCTCA	1.16
TACGAGGCT	1.14
GAGCCTAAGG	0.994
GACGTCAGTA	1.03
CAAACTTTT	1
TCAGAGCCAA	1.2
GTAACATGAT	1.05
GGCAGGGTAA	1.01
ATATGACGAT	1.05
ATCCATTAC	1.14
GGGAAGTCGC	0.981
AACAGGAGAT	0.987
ACAATTGTTG	1.01
GCTACTCAAG	1.06
ATTAATAATT	1.02
GTACTCACAG	1.12
TAGACATAT	1.02
CCCGATTAAT	1.02
CGGTATGGGT	0.995
AAATATTCG	0.955
TCGTTGCGTA	0.962
CGCCTTTTGG	1
AGTGTCGATT	1.01
AGAAACACGA	1.05

Sequence	switch fluorescence ratio
GCGAACGTCG	1.01
TCGGGGCAC	0.993
AACCGATAC	2.99
TAGATTAAA	0.992
GCGGATTTAG	0.978
AGTATACTAT	0.964
TATGATAGGG	0.997
CATTGCGGAT	1
GCCGTCTACA	0.988
TAACGGCTTG	1.01
TTTCGGACGT	0.998
GAAACGAGG	0.975
GAAGGAAGGG	1.04
CCGGTCCGC	2.68
TTCTGCTCCT	1.04
TAATGCCGTA	1.04
TGAATGGTAC	1.02
GCCGGAGGGT	1.04
ATAAGGGGCC	0.988
GACAGTGCAA	1.3
CGGCTAAAAC	1.33
TAAATTAAAA	0.959
TCAGACCCAA	1.09
TTGTATTGCA	0.997
ACATTCTTCC	1.78
AATGACTCGC	1.1

Sequence	switch fluorescence ratio
ATATCGTTGG	0.963
TTTGAGGG	1.02
ACCTTGTGGG	1.01
TGCCCGTTTT	0.966
GGGGAGACCA	0.951
TAGGGAACGA	1.03
CACATCATGG	1.04
CAGTATAATT	0.972
CCGTGTTTGC	1.21
TGATCCGCA	3.51
ATCACCGGAT	1.03
TCTTAGGAGC	1.05
TTGGATGCTT	0.99
CAGCTCATTG	1.03
TAGGGCAGT	0.997
CTCAAGTAGC	1.06
TACGAAGTGT	0.962
ATTAAAAATT	0.986
GTACCTTGCG	0.993
GGTTACCGCT	1.06
CAGTGCTGT	0.931
CGAGACTAAG	0.99
CGTATTCCGC	1.16
CGCTGATTGT	1.01
TTGACATCG	0.983
TTCCACTGTG	1.39

Sequence	switch fluorescence ratio
ATAACGTGCC	1.1
GGAAACAGGT	1.05
GCGTGATAAC	1.06
CTCCTGCATT	5.24
AGTCTCACCC	1
GAAGTCCGTT	0.966
TCGTAGCGGG	0.966
CGACCCCCGA	1.35
TAAACTACCG	1.07
GTTTGAGCTG	0.969
GTTTGTGAT	0.984
TACTCAATGA	1.04
GTAATAACGA	1.05
AGTATATT	0.978
GTTCCACTTA	1.01
GGCAATTGTT	0.967
GCGACTCCCT	1.99
GCATGTATAA	1.02
GGTCGCTAGT	0.991
AAGAATAGTC	0.931
TTAACCTTGG	1.01
CGGACCGATC	1.04
GCCTTCAGTT	0.997
TTCTAGCATT	0.979
CGTGGGTTGC	0.974
AGAAGGTAGG	1.01

Sequence	switch fluorescence ratio
GGTTTTTCCA	0.999
GGGACCCACA	1.11
CGGTTCCCGG	1.02
CTTGACGGAC	1.18
GTGTTGTGGG	0.993
CACCAGTTTT	1.04
GAAAATAC	1.1
ACTATGTAAT	1.02
AAGAGACAAT	1
TCGCGGTACT	3.36
GTAGTTATTC	1
GGATTTCTAG	0.988
GACTGGCCCT	1
GACGAGAGGG	1.04
TGAAGGAAG	1
ATGTCGCTGA	0.983
TAGGCCCTAT	1.01
TAACCGCCAT	1.38
CGGTAGCGCT	1.01
GCCTTCCCTC	2.33
CAGCCGGTTT	0.998
AGAAGATGAT	1.02
CTCATAACAC	1.09
GCGGATGCCT	0.985
TAGTTATTGC	0.989
AATTCTAAAT	0.95

Sequence	switch fluorescence ratio
TGGAACTAGG	1.03
GATTTGAAAG	0.935
AATGACTAAA	1.2
CACGTTTGTA	1.01
GTAGGTGAGC	0.996
AAGTTACAAT	1.04
TCAGACGGT	1.07
GTGAGTTATA	0.99
CGGCATAATG	1.01
CCTGTGGGGC	0.963
TTGCCACATT	0.982
AGGGGTAGAG	0.935
TTATTATTCG	0.992
ATATGACGGA	1.01
CGGACTACGG	1.1
CGCACTGGTT	1.04
GATCCATGGT	0.997
ATGTTTGCAA	1.05
GTCTGTTTCG	1.03
ACCTGGTTTA	1.03
TGTCGCGTCT	1.03
CAATTTTCGC	1.06
CATGGGTAA	1
TAATCACTGG	1.02
ATAATATTCA	0.977
CCTGTGTGTT	1.01

Sequence	switch fluorescence ratio
TACGATGGGA	1.01
CCTCTGAACA	2.69
CATCTAGGTT	0.988
CTTCCGTACG	2.78
GCTTTGAAGC	0.952
CGAGCACACT	2.27
ATGGTTAATG	1.02
AGTGGGCGGA	0.951
AAGAGCACTG	1.05
GTTCCGCCGG	1.16
AATTCACTGT	0.988
AATAAGCGCG	1.07
CTATAGAGAG	0.991
CCGGCGTATT	1.21
CTGACGGGAC	3.78
GGTTCGTATG	0.956
GAGGTCCGAT	1.02
GTCGGATCGT	1.01
GAGTTGCTA	1.05
